Source: the supplement of paper PMC4604168 (melanoma cell lines)
This is one part of the list. Most values come without repeats; read them as rough.

system: UACC257; assay: cell count relative to DMSO control; melanoma cells; higher = more viable cells; settings: library dose: standard library concentration; 72 h
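Also: cells treated in 1,536-well plates, then fixed and DAPI-stained, with nuclei counted from automated high-throughput microscope images.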

Row | SMILES | cell count
1 | CN(c1ncccc1CNc1nc(Nc2ccc3c(c2)CC(=O)N3)ncc1C(F)(F)F)S(C)(=O)=O + Cc1ccc(NC(=O)c2cccc(N(C)C)c2)cc1NC(=O)c1ccc(O)cc1 [ZM336372] (first compound 0.4 µM, partner dose 10 µM) | 62.6%
2 | C=C(c1ccc(C(=O)O)cc1)c1cc2c(cc1C)C(C)(C)CCC2(C)C [Bexarotene] + Nc1ccn([C@@H]2O[C@H](CO)[C@@H](O)C2(F)F)c(=O)n1 [gemcitabine] (first compound 10 µM, partner dose 0.002 µM) | 101%
3 | CS(=O)(=O)c1ccc(C(=O)Nc2ccc(Cl)c(-c3ccccn3)c2)c(Cl)c1 [vismodegib] + CS(=O)(=O)CCNCc1ccc(-c2ccc3ncnc(Nc4ccc(OCc5cccc(F)c5)c(Cl)c4)c3c2)o1 [lapatinib] (first compound 5 µM, partner dose 4 µM) | 107%
4 | NC1(c2ccc(-c3nc4ccn5c(=O)[nH]nc5c4cc3-c3ccccc3)cc2)CCC1 + Cc1cc(N2CCOCC2)cc2[nH]c(-c3c(NC[C@@H](O)c4cccc(Cl)c4)cc[nH]c3=O)nc12 [BMS536924] (first compound 2 µM, partner dose 1 µM) | 84.3%
5 | C=C(c1ccc(C(=O)O)cc1)c1cc2c(cc1C)C(C)(C)CCC2(C)C [Bexarotene] + Nc1ncn([C@H]2C[C@H](O)[C@@H](CO)O2)c(=O)n1 [decitabine] (first compound 10 µM, partner dose 0.5 µM) | 103%
6 | NC1(c2ccc(-c3nc4ccn5c(=O)[nH]nc5c4cc3-c3ccccc3)cc2)CCC1 + Cn1c(Nc2ccc(C(F)(F)F)cc2)nc2cc(Oc3ccnc(-c4ncc(C(F)(F)F)[nH]4)c3)ccc21 [CHIR265] (first compound 2 µM, partner dose 0.4 µM) | 68.7%
7 | CN(c1ncccc1CNc1nc(Nc2ccc3c(c2)CC(=O)N3)ncc1C(F)(F)F)S(C)(=O)=O + C=CCn1c(=O)c2cnc(Nc3ccc(N4CCN(C)CC4)cc3)nc2n1-c1cccc(C(C)(C)O)n1 [MK1775] (first compound 0.4 µM, partner dose 0.1 µM) | 75.9%
8 | CCCS(=O)(=O)Nc1ccc(F)c(C(=O)c2c[nH]c3ncc(Cl)cc23)c1F + COc1cc(Nc2ncc(F)c(Nc3ccc4c(n3)NC(=O)C(C)(C)O4)n2)cc(OC)c1OC [Tamatinib] (first compound 0.4 µM, partner dose 2 µM) | 71%
9 | NC1(c2ccc(-c3nc4ccn5c(=O)[nH]nc5c4cc3-c3ccccc3)cc2)CCC1 + CN(C)S(=O)(=O)c1ccc2c(c1)/C(=C/c1cc3c([nH]1)CCCC3)C(=O)N2 [SU6656] (first compound 2 µM, partner dose 2 µM) | 84%
10 | CS(=O)(=O)c1ccc(C(=O)Nc2ccc(Cl)c(-c3ccccn3)c2)c(Cl)c1 [vismodegib] + NC(=O)Nc1cc(-c2cccc(F)c2)sc1C(=O)N[C@H]1CCCNC1 [AZD7762] (first compound 5 µM, partner dose 0.1 µM) | 103%
11 | CCCS(=O)(=O)Nc1ccc(F)c(C(=O)c2c[nH]c3ncc(Cl)cc23)c1F + OCCn1cc(-c2cnc3nnn(Cc4ccc5ncccc5c4)c3n2)cn1 [PF04217903] (first compound 0.4 µM, partner dose 5 µM) | 95.8%
12 | CS(=O)(=O)c1ccc(C(=O)Nc2ccc(Cl)c(-c3ccccn3)c2)c(Cl)c1 [vismodegib] + CC(=O)c1c(C)c2cnc(Nc3ccc(N4CCNCC4)cn3)nc2n(C2CCCC2)c1=O [palbociclib] (first compound 5 µM, partner dose 0.2 µM) | 78.2%
13 | CN(c1ncccc1CNc1nc(Nc2ccc3c(c2)CC(=O)N3)ncc1C(F)(F)F)S(C)(=O)=O + CS(=O)(=O)CCNCc1ccc(-c2ccc3ncnc(Nc4ccc(OCc5cccc(F)c5)c(Cl)c4)c3c2)o1 [lapatinib] (first compound 0.4 µM, partner dose 4 µM) | 70.5%
14 | CN(c1ncccc1CNc1nc(Nc2ccc3c(c2)CC(=O)N3)ncc1C(F)(F)F)S(C)(=O)=O + Cn1c(Nc2ccc(C(F)(F)F)cc2)nc2cc(Oc3ccnc(-c4ncc(C(F)(F)F)[nH]4)c3)ccc21 [CHIR265] (first compound 0.4 µM, partner dose 0.4 µM) | 75.6%
